# Test results published in the RNAGym collection of RNA variant scans (doi:10.7554/elife.90254).
# The source gives no read counts; variants with many changes may rest on few reads.
# B1: LINE1-full (parent)
# chain: UACGUAGGUGGUUUUCCCCUGAUAGUGCUAAGGGGGCCUGGAAGUUUGGACUGGGCAGAGCUCAACACAGCGUGGCAAAGUGGCUGUGGCUAGACUGCCUCUCUGGAUUCCUCGUCACUCAGCAGGGCAUCUCUGAGAGAAAUGCC
# Variants of: B1
# Assay: self-cleavage, relative activity (ratio to wild type); higher = more cleavage; in vitro, sequencing; the parent is a self-cleaving ribozyme
row,Variant,self-cleavage
1,G11U A43G C61U,0.19
2,U12C A64G U112C C123U,0.33
3,G11C A43G C68U U87C A138G,0
4,U12A U14C A57U,0.33
5,U12A U87C A129U,0.3
6,U12C A50G A78G U91C A141G,0
7,U12A G34A U134C,1.53
8,U12C A69C G82A,0.09
9,U12C A22G A78U U81A U87C,0.25
10,U12C A43U U62C,0.09
11,U12A U47C U85A U112C,0
12,U12C A64G A69U U115A U132C,0.09
13,U12C A22G U26G,0.89
14,U12C A50G A59U,0.66
15,U12C A31G U85C,1.12
16,U12C A65U A77G U108A,0.31
17,G11U G34A A67G U96C,0.02
18,G11U G72A A77U,0.85
19,U12A A50G U102A,2.18
20,U12A A24G G135A,0.69
21,U12C A67G U73C A78G,2.3
22,U12A U39A A59G,0.2
23,U12C A65U A107G,0.71
24,U12A A50G U104C A142G,0

row,Variant,self-cleavage
1,U12A U46C A77G G97A,0.67
2,U12A U62C A64G A121G C146A,0
3,G11A U26A A59G A69G,0
4,U12C A22C G34A U81A A124G A141G,2.09
5,G11A C17U U29A A64U A92G,0.05
6,U12A A117G A141G U143C,1.2
7,U12A A59G A124G,0.41
8,U12A A57U U119C,0.46
9,U12C A77G U96A,0.14
10,G11U U14C A79C A140G,1.17
11,U12C A69G U119A,0.55
12,U12A U14C U39C U104A,0.9
13,U12A U20G C37U,0.78
14,U12A A67U U85C C123U,0.03
15,U12C A69G U87A G88A,0
16,G11A A30G U119C,2.7
17,G11C U45C U62A,0.17
18,G11A U87A U108C U115A,0.08
19,U12A U13A A65G C103U,0.19
20,G11U U45C A67G C68A A78G U100A A142G,0.06
21,U12C A30U A79G,1.19
22,U12C A50G U73C,0
23,U12C A136G A142G,0.26
24,U12A A31G C103U,0.74

row,Variant,self-cleavage
1,G11A U39A C128G,1.43
2,U12A U52C U73A U115A,1.3
3,U12A A31G C38A,1.48
4,U12A U62C G75A U115A,0.1
5,U12C A50G A67G,2.04
6,U12A U81C U108A,0.88
7,G11A G41U U46C U47C U109C,1.84
8,U12C A107G A124U,1.21
9,U12A C76U A117C A138G,2.95
10,U12A A57G G74A G137A,0.73
11,U12A U29C G72A U73C C95A U115A,0.06
12,U12A U20C U100A A107U U109A,0.87
13,U12C A79G A136G,0.93
14,U12A U73C U81G,2.12
15,U12C A59U U102C,1.08
16,U12A U62A U81A A138U,0.07
17,U12C A129G U132C,1.43
18,U12C A67U U85C A142G,0.19
19,U12C A31G G36C A50G,1.67
20,U12C C17A U81C,1.7
21,G11A A24G U104A U112C A138G,0.88
22,U12C A43U A79G A117G,1.53
23,U12C A43C A79G,1.62
24,U12A U39C A57G A117U,0.75

row,Variant,self-cleavage
1,G11U U112C C133U,0.87
2,U12C A117G U130C,1.8
3,U12C A42G A50U G89U,0.09
4,U12C A43G U109G,0.85
5,U12A U15A A43G U45G C56U A79U G82A U108A U143C,0.38
6,G11U U20C A107G,0.9
7,U12C A43G U62C A78G A117U,0
8,U12C A22U A129U,1.03
9,U12A U39C U73A A107G G114A,1.3
10,U12C A42G A69G G88A A136G,0.17
11,G11A U15A A69G A138G,0.6
12,U12C A77G A129U,1.31
13,U12A C18U U73A,1.07
14,U12C A22U U45C U62A,0.19
15,G11A A43U A65G,0
16,U12A U26C U73A,0.15
17,U12C A57G A121G C131U A138G,1.67
18,U12C A121U A141G U143G,1.82
19,U12C A78G U96C,0
20,U12C A78G U96G,0.48
21,U12A U20C U26G A42G,0.8
22,U12A G44U C56A,0
23,U12C A59G U102C A107G,0
24,U12C A64U U87G,0

row,Variant,self-cleavage
1,G11A G35A A67U C84G A138G,0.01
2,U12C C17A U46C,1.02
3,U12A A140G A141G,0.94
4,U12C A57C C113U A124G,0.12
5,U12A U108C U115C,1.53
6,U12C A64U C101U U102C C116A,0.55
7,G11A U26C A65G,0.05
8,U12A U13G U29C,0.22
9,U12C A69U U112C,0.26
10,U12C A64G A65U U104G U112A,0
11,U12C A43G U91C A129U A142G,1.53
12,U12A U47C A124U,1.9
13,U12C A22U U73A,1.8
14,U12A U20C G54A U119A,0.22
15,U12C A65G U112A A124G A138G,0
16,U12A U108A A136G,0.84
17,G11A U85C U130C,0.38
18,U12A C38G U62C A107U,0.18
19,U12C A64G U102C U109A U115A,0.3
20,U12A G75U A121U A141G U143C,1.65
21,G11U U39C U100C,1.19
22,U12A U14C U20C G48A,1.09
23,U12A U14C G25A U73A U134C,1.37
24,U12A U14C A124G U134C,1.19

row,Variant,self-cleavage
1,U12C A69G A78G,0
2,U12A C19A A67G,0.71
3,U12C A22G G44C,1.09
4,U12C A129U A141G,1.61
5,U12C A57U A59G U85A U100C G127C,0.07
6,U12C A107U A117U,1.94
7,U12C A69U U73A,0.07
8,U12C A57U U87C A121G A138G,0
9,U12C A59G A121G,0.51
10,U12A C17G U104C,1.38
11,U12C A22U U29C U62C U104A A117G,0.92
12,U12C A30G U134A,1.21
13,G11A U15A G40U A142G U143C,0
14,G11A G89U U96C,0.04
15,U12C A22U G34A U46A A67U G80U,0.17
16,U12A U20C U96A,0.12
17,U12C A22G A140G,0.68
18,G11A U20C U85C,0.21
19,G11A A138U U143A,1.07
20,U12C A43U U62C A79U U87C,0.1
21,U12A U14C C19G G48A A65G A136G,0.32
22,U12A U87G U143C,0
23,G11C U62A A107G U134C G137U,0.12
24,U12C A24G C103U U115C A142G,1.89

row,Variant,self-cleavage
1,U12A U81A U96C U108A U109A U119C,0.31
2,G11C U13C G32A,0.94
3,U12C A43G C84A U130C,0.23
4,U12C A42U U62C A117G,0
5,U12C A22G C37G A124G G144A,0.89
6,G11A A30U U62C A69G C98U,0.13
7,G11A U39C A59G G86A,0.04
8,U12C A107G U143A,0.59
9,U12A A77U A92G U102C,0.36
10,U12C A92G G144A,0
11,U12A A69G A141G,0.73
12,U12C A31U A64G A141G,0.82
13,U12C A30C G35U G54U,1.46
14,U12A U14C U73C U100C,1.67
15,U12A U62C A67G,0.68
16,G10U U81C A142G,2.34
17,U12C A30G G33U,0.9
18,U12C A42G A57U U130C A142G,0.55
19,U12A A57G U87C,0
20,U12A G55A A129G,0.36
21,U12A U100C A124U,1.11
22,U12C A57U U115C U130C,0.37
23,U12C A140G A142G,0.64
